According to paper PMC11217408:
These are yes or no findings as the source states them, for the method shown. In cells and extracts the contact can be indirect. Some entries that bind do so weakly or less than the wild type. For part of these data: Where a sequence is shown, tags or fusion partners need not be part of it. Values belong to the molecule of their own block, whether it stands above or below them.

Chains of the proteins cited; added tags and fusions are not shown.
UniProt O00165: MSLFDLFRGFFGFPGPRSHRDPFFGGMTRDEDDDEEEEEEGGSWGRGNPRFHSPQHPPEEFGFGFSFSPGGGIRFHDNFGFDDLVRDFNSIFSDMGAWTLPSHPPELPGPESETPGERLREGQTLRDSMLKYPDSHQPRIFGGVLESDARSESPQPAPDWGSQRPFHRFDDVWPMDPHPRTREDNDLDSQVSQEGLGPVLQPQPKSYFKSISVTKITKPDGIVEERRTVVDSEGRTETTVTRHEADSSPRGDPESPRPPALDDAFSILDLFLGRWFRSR
UniProt Q8ND56: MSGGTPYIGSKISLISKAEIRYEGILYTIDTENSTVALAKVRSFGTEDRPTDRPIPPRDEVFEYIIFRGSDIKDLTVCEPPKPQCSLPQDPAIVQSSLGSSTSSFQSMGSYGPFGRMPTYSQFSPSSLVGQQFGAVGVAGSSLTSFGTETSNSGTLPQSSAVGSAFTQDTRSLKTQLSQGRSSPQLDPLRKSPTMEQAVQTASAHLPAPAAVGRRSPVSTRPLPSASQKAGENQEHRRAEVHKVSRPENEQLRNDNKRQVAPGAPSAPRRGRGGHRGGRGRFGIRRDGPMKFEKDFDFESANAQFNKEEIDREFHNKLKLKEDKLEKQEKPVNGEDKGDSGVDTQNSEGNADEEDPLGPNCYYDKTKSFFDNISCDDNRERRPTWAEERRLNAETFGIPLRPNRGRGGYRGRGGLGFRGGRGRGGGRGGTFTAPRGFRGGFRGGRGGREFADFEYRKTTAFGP
UniProt P26196: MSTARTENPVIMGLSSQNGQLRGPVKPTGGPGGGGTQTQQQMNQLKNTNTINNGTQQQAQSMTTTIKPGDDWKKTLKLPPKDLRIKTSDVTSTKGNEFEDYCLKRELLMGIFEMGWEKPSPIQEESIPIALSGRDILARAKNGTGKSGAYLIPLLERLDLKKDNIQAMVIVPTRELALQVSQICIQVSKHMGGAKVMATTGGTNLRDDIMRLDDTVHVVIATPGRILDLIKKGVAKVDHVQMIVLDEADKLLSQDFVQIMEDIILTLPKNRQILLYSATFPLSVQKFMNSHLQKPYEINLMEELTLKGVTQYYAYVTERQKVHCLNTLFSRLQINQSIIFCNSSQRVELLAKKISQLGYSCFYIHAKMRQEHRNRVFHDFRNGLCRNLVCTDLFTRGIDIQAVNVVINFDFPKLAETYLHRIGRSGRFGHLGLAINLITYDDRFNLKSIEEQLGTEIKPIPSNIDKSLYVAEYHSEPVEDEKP

Legend:
[1] = target: HAX1 (endogenous) (human (endogenous in HEK293T)) (UniProt O00165); experiment: co-IP; endogenous proteins; HEK293T cells treated with DMSO or oligomycin with or without TAK-243 (1 h); lysates captured with magnetic beads conjugated with IgG or anti-HAX1 antibodies, immunoblot
GFP-LSM14A (human) = GFP-LSM14A (human) (UniProt Q8ND56); experiment: co-IP; HEK293T cells transfected with tagged proteins (Flag-HAX1 + GFP-TRIM23; GFP-TRIM23 + flag-DCP1A, flag-EDC3 or flag-NBDY; GFP-LSM14A + flag-TRIM23; GFP-TRIM23 alone); lysis buffer 50 mM Tris-Cl pH 7.4, 150 mM NaCl, 1% Triton X-100, 1 mM DTT; IP with indicated antibodies or control IgG, western blot
Flag-NBDY (human) = target: T1, Flag-NBDY (human); experiment: as above
T1 sequence: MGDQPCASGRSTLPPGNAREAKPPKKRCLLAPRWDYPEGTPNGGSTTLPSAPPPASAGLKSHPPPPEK

Flag-EDC3 (human) = target: T2, Flag-EDC3 (human) (UniProt Q96F86); experiment: as above
T2 sequence: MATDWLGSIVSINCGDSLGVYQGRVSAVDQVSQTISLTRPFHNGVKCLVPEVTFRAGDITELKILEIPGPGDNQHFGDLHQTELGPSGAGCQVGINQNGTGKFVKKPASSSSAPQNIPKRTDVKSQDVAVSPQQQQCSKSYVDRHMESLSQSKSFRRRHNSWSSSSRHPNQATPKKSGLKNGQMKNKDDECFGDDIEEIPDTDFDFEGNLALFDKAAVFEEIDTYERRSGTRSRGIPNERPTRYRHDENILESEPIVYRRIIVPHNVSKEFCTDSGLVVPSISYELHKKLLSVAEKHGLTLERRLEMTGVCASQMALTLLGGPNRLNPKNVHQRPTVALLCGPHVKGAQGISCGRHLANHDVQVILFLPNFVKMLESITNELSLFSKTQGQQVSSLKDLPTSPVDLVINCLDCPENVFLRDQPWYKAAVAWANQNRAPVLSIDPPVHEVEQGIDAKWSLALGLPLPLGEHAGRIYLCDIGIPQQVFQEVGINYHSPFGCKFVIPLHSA

Flag-DCP1A (human) = target: T3, Flag-DCP1A (human) (UniProt Q9NPI6); experiment: as above
T3 sequence: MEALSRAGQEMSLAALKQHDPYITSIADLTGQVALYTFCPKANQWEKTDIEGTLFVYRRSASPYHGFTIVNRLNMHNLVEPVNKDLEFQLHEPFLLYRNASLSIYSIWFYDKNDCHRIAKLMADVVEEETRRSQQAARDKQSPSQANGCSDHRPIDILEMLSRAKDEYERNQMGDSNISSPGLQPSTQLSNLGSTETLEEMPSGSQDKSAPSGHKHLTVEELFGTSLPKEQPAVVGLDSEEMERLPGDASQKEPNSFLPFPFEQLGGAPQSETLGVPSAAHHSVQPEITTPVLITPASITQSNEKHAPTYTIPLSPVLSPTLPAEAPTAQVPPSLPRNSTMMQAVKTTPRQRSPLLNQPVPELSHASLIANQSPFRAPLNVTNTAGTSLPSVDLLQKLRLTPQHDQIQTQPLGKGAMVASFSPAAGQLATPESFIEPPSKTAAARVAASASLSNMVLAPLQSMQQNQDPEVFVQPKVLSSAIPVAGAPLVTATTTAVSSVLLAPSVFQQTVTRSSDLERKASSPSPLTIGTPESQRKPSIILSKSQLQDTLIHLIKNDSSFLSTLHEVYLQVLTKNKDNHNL

[2] = target: DDX6 (endogenous) (human (endogenous in HEK293T)) (UniProt P26196); experiment: as above

binding [1]: binds
Molecule: LSM14A (endogenous) (from UniProt Q8ND56 1-463)

binding (GFP-LSM14A (human)): no binding
B1: Flag-TRIM23 (enzyme, UniProt P36406 1-574)
chain: MATLVVNKLGAGVDSGRQGSRGTAVVKVLECGVCEDVFSLQGDKVPRLLLCGHTVCHDCLTRLPLHGRAIRCPFDRQVTDLGDSGVWGLKKNFALLELLERLQNGPIGQYGAAEESIGISGESIIRCDEDEAHLASVYCTVCATHLCSECSQVTHSTKTLAKHRRVPLADKPHEKTMCSQHQVHAIEFVCLEEGCQTSPLMCCVCKEYGKHQGHKHSVLEPEANQIRASILDMAHCIRTFTEEISDYSRKLVGIVQHIEGGEQIVEDGIGMAHTEHVPGTAENARSCIRAYFYDLHETLCRQEEMALSVVDAHVREKLIWLRQQQEDMTILLSEVSAACLHCEKTLQQDDCRVVLAKQEITRLLETLQKQQQQFTEVADHIQLDASIPVTFTKDNRVHIGPKMEIRVVTLGLDGAGKTTILFKLKQDEFMQPIPTIGFNVETVEYKNLKFTIWDVGGKHKLRPLWKHYYLNTQAVVFVVDSSHRDRISEAHSELAKLLTEKELRDALLLIFANKQDVAGALSVEEITELLSLHKLCCGRSWYIQGCDARSGMGLYEGLDWLSRQLVAAGVLDVA

binding (Flag-NBDY (human)): no binding | binding (Flag-EDC3 (human)): no binding | binding (Flag-DCP1A (human)): no binding | binding [2]: no binding
B2: GFP-TRIM23 (tripartite motif containing 23), full length (enzyme, UniProt P36406 1-574)
chain: MATLVVNKLGAGVDSGRQGSRGTAVVKVLECGVCEDVFSLQGDKVPRLLLCGHTVCHDCLTRLPLHGRAIRCPFDRQVTDLGDSGVWGLKKNFALLELLERLQNGPIGQYGAAEESIGISGESIIRCDEDEAHLASVYCTVCATHLCSECSQVTHSTKTLAKHRRVPLADKPHEKTMCSQHQVHAIEFVCLEEGCQTSPLMCCVCKEYGKHQGHKHSVLEPEANQIRASILDMAHCIRTFTEEISDYSRKLVGIVQHIEGGEQIVEDGIGMAHTEHVPGTAENARSCIRAYFYDLHETLCRQEEMALSVVDAHVREKLIWLRQQQEDMTILLSEVSAACLHCEKTLQQDDCRVVLAKQEITRLLETLQKQQQQFTEVADHIQLDASIPVTFTKDNRVHIGPKMEIRVVTLGLDGAGKTTILFKLKQDEFMQPIPTIGFNVETVEYKNLKFTIWDVGGKHKLRPLWKHYYLNTQAVVFVVDSSHRDRISEAHSELAKLLTEKELRDALLLIFANKQDVAGALSVEEITELLSLHKLCCGRSWYIQGCDARSGMGLYEGLDWLSRQLVAAGVLDVA
